According to PubChem BioAssay (NCATS):
Records with an inconclusive call do not appear. Unless noted, the call rests on the fitted dose curve. Certain results were filed several times, with different values. Only these are listed. The source may hold further records. Results that share an entry are repeats in other runs, samples, wells, individuals or studies.

Assays:
[1] = biological target: Cytochrome P450 1A2 (Homo sapiens) (UniProt P05177); experiment: p450-cyp1a2 (AID 410); settings: recombinant CYP1A2, luciferin-ME demethylation, luminescence
Chain of UniProt P05177 (P05177 whole entry, looked up): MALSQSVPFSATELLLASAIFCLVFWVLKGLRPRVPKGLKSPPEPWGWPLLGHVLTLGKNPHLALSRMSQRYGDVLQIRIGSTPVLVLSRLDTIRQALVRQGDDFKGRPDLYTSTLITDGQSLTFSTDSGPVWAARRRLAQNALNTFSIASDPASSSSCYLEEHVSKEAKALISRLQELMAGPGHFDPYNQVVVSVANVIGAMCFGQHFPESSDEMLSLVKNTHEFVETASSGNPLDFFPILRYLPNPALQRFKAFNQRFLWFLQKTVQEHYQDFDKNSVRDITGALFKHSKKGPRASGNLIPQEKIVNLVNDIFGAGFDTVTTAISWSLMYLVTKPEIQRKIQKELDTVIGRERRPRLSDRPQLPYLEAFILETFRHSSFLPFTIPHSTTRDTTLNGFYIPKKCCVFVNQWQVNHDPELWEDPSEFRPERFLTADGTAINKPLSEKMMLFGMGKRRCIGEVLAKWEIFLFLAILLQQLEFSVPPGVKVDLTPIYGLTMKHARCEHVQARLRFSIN
Summary of the method: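 Inhibition was calculated relative to 57 uM furafylline (full inhibition). The reaction used human CYP1A2 at 20nM with Luciferin-ME at its Km, 100uM, driven by an NADPH-regenerating system for 60 min at room temperature.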

[2] = biological target: Cytochrome P450 2C9 (Homo sapiens) (UniProt P11712); experiment: qHTS Assay for Inhibitors and Substrates of Cytochrome P450 2C9 (AID 883; active means well fitted inhibition curve with a large enough effect; further: nearly all actives have a fitted effect of over 60% in size); settings: recombinant CYP2C9, luciferin-H luminescence, 60 min
Chain of UniProt P11712 (P11712 whole entry, looked up): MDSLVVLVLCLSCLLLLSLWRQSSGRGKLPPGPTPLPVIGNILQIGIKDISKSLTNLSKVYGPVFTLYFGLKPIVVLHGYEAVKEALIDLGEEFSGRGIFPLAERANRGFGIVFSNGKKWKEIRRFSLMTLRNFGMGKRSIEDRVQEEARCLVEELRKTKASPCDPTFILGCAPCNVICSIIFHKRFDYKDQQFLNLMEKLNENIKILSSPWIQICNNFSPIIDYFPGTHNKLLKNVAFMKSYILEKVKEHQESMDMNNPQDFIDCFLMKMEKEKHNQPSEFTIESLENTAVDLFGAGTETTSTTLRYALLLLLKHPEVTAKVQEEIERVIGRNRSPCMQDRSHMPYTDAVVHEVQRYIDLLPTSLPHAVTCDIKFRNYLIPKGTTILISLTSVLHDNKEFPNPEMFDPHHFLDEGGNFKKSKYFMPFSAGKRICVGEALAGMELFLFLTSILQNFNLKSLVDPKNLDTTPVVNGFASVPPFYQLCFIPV
Summary of the method: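 A luminogenic readout tracked human CYP2C9 (10nM) converting deoxyluciferin (100uM, at KM) in 25mM KPO4 during 60 min at 37C with regenerated NADPH. Values normalized to 57uM sulphaphenazole as complete inhibition.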
Potency means the concentration at half of the fitted maximal effect.

SMILES | Potency [1] | Potency [2]
COc1ccc([C@@H]2CNC(=O)C2)cc1OC1CCCC1 | active: 10, 3.16, 3.98, 2.51 µM [separate samples] | 
COc1ccc2c(c1OC)C(=O)OC2[C@H]1c2c(cc3c(c2OC)OCO3)CCN1C (some centres not stated) |  | active: 5.01, 2.51, 1.26, 1.58 µM [separate samples]
